Experimental data taken from PubChem BioAssay AID1030 (National Center for Advancing Translational Sciences (NCATS), 2008).
Where “and” joins values, the source holds several entries; their conditions need not be identical. Equal values may be shown once. Among all 220,000 compounds or so, about 16,000 (7.3%) were called active. This list was built around the results that the source calls inconclusive (neither active nor inactive); the mix of calls is not that of the screen. The call rests on the fitted dose curve; in most records, active means well fitted inhibition curve with a large enough effect (not every such curve was filed as active); inconclusive means small, poorly fitted or top-dose-only effect, or another doubt; inactive means no such curve, though single readings can be large or run the other way. Potencies beside an inconclusive call are fits to weak or partial responses and may not hold up. A structure can be active in one record and inactive in another.

Biological target: Aldehyde dehydrogenase 1A1 (Homo sapiens) (UniProt P00352)
Chain of UniProt P00352 (P00352 whole entry, looked up): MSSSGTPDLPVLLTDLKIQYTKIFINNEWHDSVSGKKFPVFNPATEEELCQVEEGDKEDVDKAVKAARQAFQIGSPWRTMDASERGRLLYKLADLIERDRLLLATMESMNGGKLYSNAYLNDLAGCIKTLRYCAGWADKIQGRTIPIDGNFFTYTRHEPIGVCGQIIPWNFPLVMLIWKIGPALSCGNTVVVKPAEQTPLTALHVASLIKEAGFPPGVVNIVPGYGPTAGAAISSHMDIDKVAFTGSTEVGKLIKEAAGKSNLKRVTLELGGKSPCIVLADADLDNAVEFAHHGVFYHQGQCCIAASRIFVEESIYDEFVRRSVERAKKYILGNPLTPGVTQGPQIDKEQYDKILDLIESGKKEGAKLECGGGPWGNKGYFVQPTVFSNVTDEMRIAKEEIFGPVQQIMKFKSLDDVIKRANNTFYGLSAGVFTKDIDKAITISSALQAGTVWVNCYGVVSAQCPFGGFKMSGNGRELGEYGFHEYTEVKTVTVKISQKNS
Assay: qHTS Assay for Inhibitors of Aldehyde Dehydrogenase 1 (ALDH1A1);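 on activity, negative = inhibition: plate controls were no enzyme wells and a reference inhibitor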
Conditions: Purified ALDH1A1, NADH fluorescence, propionaldehyde substrate; series mostly up to 75.3 µM; activity, negative = inhibition: at the top concentration
Potency means the concentration at half of the fitted maximal effect; tags describe the fitted curve by direction and shape.

activity, negative = inhibition, inactive:
Cc1ccc(C)c(N(CC(=O)NC2CCCC2)C(=O)c2oc(C(C)(C)C)cc2C)c1 0.54%, CC1SC(C)C(=O)N(CC(=O)NCc2ccc(F)cc2)C1=O (centres undefined) 3.68%, O=C(COc1ccc(F)cc1)NNC(=O)c1cc2ccccc2oc1=O -4.67%, O=C(Cc1ccccc1)NN1C(=O)c2ccccc2C1=O 3.17%, CNC(=S)NCc1ccc2[nH]c(C)cc2c1 -2.45%, CNC(=O)c1c(C)noc1C 4.51%, Cc1c(Cl)c(S(N)(=O)=O)cc2c1=NC=NS=2(=O)O -2.92% [at 13.5 µM], COc1ccccc1NC(=S)NNC(=O)c1ccc(O)cc1 -4.82%, COc1cc(C=Nc2cccc(C)c2)c(O)c([N+](=O)[O-])c1 -11.1%, O=C(CSc1nnc(-c2ccc(F)cc2)c2ccccc12)Nc1cccc(Cl)c1 9.78%, CCCC(=O)N1c2ccccc2C(=C2SC(C(=O)OC)=C(C(=O)OC)S2)C(=S)C1(C)C -12.4%, COc1ccc(CC(=O)Nc2ccc(-c3noc(-c4cc(OC)c(OC)c(OC)c4)n3)cc2)cc1 -5.84%, O=C(Cn1cnc2ccccc2c1=O)Nc1nnc(SCc2ccccc2)s1 9.41%, Cc1ccc(NC(=S)N/N=C/c2c(Cl)cccc2Cl)c(C)c1 -5.23%, COc1ccc(COC(=O)N/N=C2/C[C@@H](O)[C@@H](O)[C@@H]3[C@@H]4C(=O)N(C(C)(C)C)C(=O)[C@H]4CC[C@@H]23)cc1 0.611% [at 13.5 µM], COc1ccccc1S(=O)(=O)Nc1cccc(-c2nnc3n2CCCCC3)c1 10.8%, CC(C)c1nnc(SCC(=O)NC(C)(C)C)n1C 2%

Potency, active:
CCS(=O)(=O)N1CCN(c2ccc(C(=O)NC3C4CC5CC(C4)CC3C5)cc2[N+](=O)[O-])CC1 (centres undefined) 7.08 µM, C/C(CC1(O)C(=O)N(Cc2ccccc2)c2ccccc21)=N\O (centres undefined) 1.58 µM, COc1cccc(CN2CCN(C(=O)c3cccs3)CC2)c1OC 17.8 µM, Cc1ccc(NC(=O)CSc2nnc(CN3CCOCC3)n2C)cc1C 31.6 µM, CC(=O)N1C(=O)/C(=C2\SC(=S)N(c3c(C)n(C)n(-c4ccccc4)c3=O)C2=O)c2ccccc21 10 µM, COCCNC(=O)[C@H](C)[C@H]1C[C@]1(C)[C@H](NC(=O)OCc1ccccc1)c1ccccc1 28.2 µM, O=C(CCc1ccc(S(=O)(=O)NCCc2ccccc2)cc1)NCc1ccco1 5.01 µM, Cc1cccc(C(=O)NC(=S)NNC(=O)COc2ccc(Cl)cc2)c1 9.46 µM, Cc1noc(C)c1CSc1nnc(-c2ccccc2)n1N 10 µM, CN(Cc1ccccc1)c1ncc(C=O)s1 7.08 µM, CN(C1CCCCC1)S(=O)(=O)c1ccc(NC(=S)NC(=O)c2cccs2)cc1 22.4 µM

Potency, inconclusive:
COc1ccc(Nc2nc(C)c3ccccc3n2)cc1 39.8 µM [inhibitor, single point], CCCN(CCC)CCCNC(=S)Nc1ccc2nc(N3CCCC3)cc(C)c2c1 14.1 µM [inhibitor, partial curve], COc1cc(C(C#N)N2N=C(c3ccccc3)CC2c2ccccc2)ccc1O (centres undefined) 25.1 µM [inhibitor, single point], COc1ccccc1CNC(=O)COC(=O)Cc1c(Cl)cccc1Cl 44.7 µM [inhibitor, single point], CCOC(=O)c1ccccc1NC(=O)c1cn(-c2ccc(OC)cc2)c(=O)c2ccccc12 28.2 µM [inhibitor, partial curve], Cc1cc(NS(=O)(=O)c2ccc(NC(=O)c3cccc(OC(F)F)c3)cc2)nc(C)n1 28.2 µM [inhibitor, partial curve], CCn1c(=O)c(C(=O)CN2CCCc3ccccc32)c(N)n(Cc2ccccc2)c1=O 22.4 µM [inhibitor, single point], O=C(O)c1cc(Cl)ccc1-c1ccc(/C=C/c2cc(C(F)(F)F)[nH]c(=O)n2)o1 35.5 µM [inhibitor, single point], Cc1nn(C)c(Cl)c1C(=O)NC(C(=O)O)c1ccccc1 (centres undefined) 39.8 µM [inhibitor, single point], CC(C)c1ccc2[nH]c(O)c(N=NC(=O)c3ccc(CSc4nncn4C)cc3)c2c1 4.47 µM [inhibitor, full curve], COc1ccc(CN(Cc2cc3cccc(C)c3n3nnnc23)C(=O)N2CCOCC2)cc1 39.8 µM [inhibitor, single point], O=C(c1ccc2c(=O)n3c(nc2c1)CCCCC3)N1CCN(c2ccccc2)CC1 25.1 µM [inhibitor, single point], Cc1ccc(C(=O)Nc2nnc(SCC(=O)N3CCCc4ccccc43)s2)cc1 35.5 µM [inhibitor, single point], CC1CCN(C(=O)CSc2nc3ccccc3c(=O)[nH]2)CC1 22.4 µM [inhibitor, partial curve], COC(=O)CCC(=O)OC1(C)C(=O)C2=CN(CCN3CCOCC3)C(c3ccc(OC)cc3)=CC2=C(Br)C1=O (centres undefined) 5.01 µM [inhibitor, partial curve], FC(F)Oc1ccc(-c2csc(=Nc3cccnc3)n2CC2CCCO2)cc1 (centres undefined) 39.8 µM [inhibitor, single point], COc1cc2oc(=O)c3c(c2cc1OCC(=O)c1c(C)n(C)c2ccccc12)CCCC3 25.1 µM [inhibitor, partial curve], CSc1nnc(-c2cc(-c3ccc(C)cc3)nc3ccccc23)o1 8.91 µM [inhibitor, partial curve], CCOC(=O)c1[nH]c2c(c1C)C(=O)CC(c1ccco1)C2 (centres undefined) 31.6 µM [inhibitor, single point], FC(F)(F)c1cccc(OCCN2CCN(Cc3ccccc3)CC2)c1 44.7 µM [inhibitor, single point], COC(=O)c1[nH]c2ccc(C)cc2c1NC(=O)CN1CCN(c2ccc(F)cc2)CC1 31.6 µM [inhibitor, single point], C=CCN(c1ccccc1)S(=O)(=O)c1cccc(C(=O)Nc2nc3ccccc3[nH]2)c1 39.8 µM [inhibitor, single point], CC(=O)Oc1cccc2c1C(=O)c1c(OC(C)=O)cc(C(=O)O)cc1C2=O 35.5 µM [inhibitor, single point] and 39.8 µM [inhibitor, single point], O=C(CN(C(=O)Cn1nnc(-c2ccccc2F)n1)c1cnc2ccccc2c1)NCC1CCCO1 (centres undefined) 28.2 µM [inhibitor, partial curve], CN(C)S(=O)(=O)c1ccc(Cl)c(NC(=O)COC(=O)C2CSC3(C)CCC(=O)N23)c1 (centres undefined) 39.8 µM [inhibitor, single point], NC(=O)CCCCC(=O)OCCCc1cccs1 39.8 µM [inhibitor, single point], CCOC(=O)CSC1=C(C#N)C(c2ccc(OC)cc2)C2=C(CC(C)(C)CC2=O)N1 (centres undefined) 2.51 µM [inhibitor, full curve], COc1ccc2c(c1O)Cc1ccccc1C2=O 39.8 µM [inhibitor, single point], CC(C)N(CCNCc1nnc(-c2ccccc2)o1)C(C)C 12.6 µM [inhibitor, partial curve], CC(=O)C1=C(c2cccc([N+](=O)[O-])c2)N(C(C)=O)n2c(C)nnc2S1 15.8 µM [inhibitor, partial curve], OCCNc1nc(Nc2ccc(Br)cc2)nc2ccccc12 39.8 µM [inhibitor, single point], COc1cc2c(cc1NS(=O)(=O)N1CCCCC1)oc1ccccc12 28.2 µM [inhibitor, partial curve], CCOc1ccc(/C=N/NC(=O)CN2CCSCC2)cc1 28.2 µM [inhibitor, single point], N#CCC(=O)NNC(=S)NC(=O)C(c1ccccc1)c1ccccc1 39.8 µM [inhibitor, single point], CC(C)c1ccc(N=C2NN=C(c3cccs3)CS2)cc1 35.5 µM [inhibitor, single point], COc1ccc(OC)c(-c2nc(CN(C)C(C)c3ccncn3)c(C)o2)c1 (centres undefined) 37.7 µM [inhibitor, single point], Cn1c(NCc2cccnc2)nc2c1c(=O)n(Cc1ccccc1F)c(=O)n2C 44.7 µM [inhibitor, single point], CC(=O)c1cc2c(cc1NC(=O)c1ccccc1C)OCO2 39.8 µM [inhibitor, single point], C/C(=C\C(=S)Nc1ccccc1)Nc1cccc2ccccc12 28.2 µM [inhibitor, partial curve], COc1ccccc1-c1nnc(SC/C(O)=C(\C#N)c2nc3ccccc3[nH]2)n1C1CCCCC1 25.1 µM [inhibitor, single point], COc1cc2c(cc1OC)-c1nnnn1C(C)(C)C2 20 µM [inhibitor, partial curve]
